{"source": "paper PMC4336329", "about": "(PLoS ONE, 2015)", "note": "Among all 310,000 compounds or so, about 2,200 (0.71%) showed an effect of 50% or more. The effect is printed as a negative number. The list shows a part of the results."}
{"molecular_target": "human ether-à-go-go-related gene (hERG) potassium channel (human, UniProt Q12809)", "sequence (Q12809 whole entry, looked up)": "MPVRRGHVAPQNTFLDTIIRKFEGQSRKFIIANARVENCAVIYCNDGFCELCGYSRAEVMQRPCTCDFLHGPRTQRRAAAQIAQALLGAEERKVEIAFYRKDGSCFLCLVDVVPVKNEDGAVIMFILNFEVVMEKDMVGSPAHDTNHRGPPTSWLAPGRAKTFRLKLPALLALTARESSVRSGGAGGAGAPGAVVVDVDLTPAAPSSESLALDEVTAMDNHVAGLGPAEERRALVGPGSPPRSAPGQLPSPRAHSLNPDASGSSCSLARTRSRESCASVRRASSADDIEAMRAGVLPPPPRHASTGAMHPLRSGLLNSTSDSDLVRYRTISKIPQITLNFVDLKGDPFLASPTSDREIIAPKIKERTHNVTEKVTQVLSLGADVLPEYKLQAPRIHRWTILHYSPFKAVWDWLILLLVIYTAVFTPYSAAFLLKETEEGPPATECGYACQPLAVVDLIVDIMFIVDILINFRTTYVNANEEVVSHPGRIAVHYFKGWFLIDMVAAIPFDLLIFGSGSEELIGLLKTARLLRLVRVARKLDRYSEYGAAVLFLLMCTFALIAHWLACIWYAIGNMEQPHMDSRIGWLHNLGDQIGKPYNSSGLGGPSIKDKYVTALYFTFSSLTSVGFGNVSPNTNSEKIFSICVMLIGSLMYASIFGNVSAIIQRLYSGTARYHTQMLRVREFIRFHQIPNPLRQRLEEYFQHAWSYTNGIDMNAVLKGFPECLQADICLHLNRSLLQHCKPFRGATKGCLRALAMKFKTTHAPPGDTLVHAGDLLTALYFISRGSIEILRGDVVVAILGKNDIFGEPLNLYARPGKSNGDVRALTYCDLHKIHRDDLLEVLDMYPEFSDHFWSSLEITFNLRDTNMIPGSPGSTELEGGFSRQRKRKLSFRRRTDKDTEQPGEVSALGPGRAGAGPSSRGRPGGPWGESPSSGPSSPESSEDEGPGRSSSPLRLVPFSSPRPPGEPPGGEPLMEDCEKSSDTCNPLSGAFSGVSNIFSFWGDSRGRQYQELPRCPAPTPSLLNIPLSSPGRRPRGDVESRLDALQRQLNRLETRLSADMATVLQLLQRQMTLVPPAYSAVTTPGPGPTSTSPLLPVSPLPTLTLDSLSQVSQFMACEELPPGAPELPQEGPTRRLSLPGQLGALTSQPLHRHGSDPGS", "assay": "primary screen, population patch clamp on CHO cells stably expressing hERG", "units": {"hERG current change (%, negative = inhibition) at 1uM": "%"}}
{"compound": "O=C(CSc1nnc(-c2cccs2)o1)NCC1CN(Cc2ccccc2)CCO1", "note": "(centres unmarked)", "hERG current change (%, negative = inhibition) at 1uM": 11.7}
{"compound": "O=C1C(=O)N(Cc2cccnc2)C(c2cccc(F)c2)/C1=C(/O)c1ccc2c(c1)OCO2", "note": "(centres unmarked)", "hERG current change (%, negative = inhibition) at 1uM": 14.4}
{"compound": "O=C(Nc1nc2ccsc2c(=O)s1)c1ccc(F)cc1", "hERG current change (%, negative = inhibition) at 1uM": 6.15}
{"compound": "CCCOc1ccc(N2C(=O)CC(SCCN)C2=O)cc1.Cl", "note": "(centres unmarked)", "hERG current change (%, negative = inhibition) at 1uM": -3.2}
{"compound": "Cc1ccn(CC(=O)NC2CC(C)(C)Cc3c2cnn3-c2ccc(F)cc2)n1", "note": "(centres unmarked)", "hERG current change (%, negative = inhibition) at 1uM": 2.83}
{"compound": "CC(C)c1ccc(N2C(=O)CC(Sc3nc4ccccc4o3)C2=O)cc1", "note": "(centres unmarked)", "hERG current change (%, negative = inhibition) at 1uM": 5.96}
{"compound": "O=c1cc(N2CCN(c3cccc(Cl)c3)CC2)[nH]c(=O)n1C1CCCCC1", "hERG current change (%, negative = inhibition) at 1uM": 5.48}
{"compound": "O=c1c2ccccc2nc(/C=C/c2ccccn2)n1-c1ccccc1", "hERG current change (%, negative = inhibition) at 1uM": 17.5}
{"compound": "COc1ccc(C2CC(=O)C3=C(C2)NC(C)=C(C(=O)Nc2ccccc2C)C3c2coc3ccc(C)cc3c2=O)cc1OC", "note": "(centres unmarked)", "hERG current change (%, negative = inhibition) at 1uM": 3.64}
{"compound": "Cc1csc(SC(C)C(=O)NC2CCCCC2C)n1", "note": "(centres unmarked)", "hERG current change (%, negative = inhibition) at 1uM": 7.18}
{"compound": "CC1CC(C)CN(C(=O)COC(=O)c2cc([N+](=O)[O-])ccc2N2CCOCC2)C1", "note": "(centres unmarked)", "hERG current change (%, negative = inhibition) at 1uM": -21.1}
{"compound": "COc1ccccc1CC(=O)N1CCCC(CCC(=O)NCc2ccccc2F)C1", "note": "(centres unmarked)", "hERG current change (%, negative = inhibition) at 1uM": 7.54}
{"compound": "C(/CCc1ccccc1)=N\\n1cnnc1", "hERG current change (%, negative = inhibition) at 1uM": 14.2}
{"compound": "O=C(NCc1ccccc1)C(c1ccc(O)cc1)N(C(=O)c1cnccn1)c1ccccc1", "note": "(centres unmarked)", "hERG current change (%, negative = inhibition) at 1uM": 10.8}
{"compound": "CCOc1ccccc1NC(=O)CN1CCC(C(=O)c2ccc(OC)cc2)CC1", "hERG current change (%, negative = inhibition) at 1uM": -26.4}
{"compound": "Cc1ccc(OCCC(=O)OCC(=O)NCCc2ccc(Cl)cc2)cc1", "hERG current change (%, negative = inhibition) at 1uM": 16.1}
{"compound": "COC(=O)C1=C(c2ccc(F)cc2OCc2ccccc2)C[C@@H]2CC[C@H]1N2C(=O)NCCCOC(C)C", "hERG current change (%, negative = inhibition) at 1uM": 6.05}
{"compound": "COc1ccc2[nH]c(=O)c(CN(CC3CCCO3)C(=S)Nc3ccccc3)cc2c1", "note": "(centres unmarked)", "hERG current change (%, negative = inhibition) at 1uM": 15.7}
{"compound": "Cc1ccc(OCCN2C(=O)c3ccccc3C2=O)c([N+](=O)[O-])c1", "hERG current change (%, negative = inhibition) at 1uM": 7.81}
{"compound": "Cc1noc(C)c1CSc1nnnn1-c1ccc(Cl)cc1", "hERG current change (%, negative = inhibition) at 1uM": 6.35}
{"compound": "Cc1cc(C)c(C#N)c(SCC2COc3ccccc3O2)n1", "note": "(centres unmarked)", "hERG current change (%, negative = inhibition) at 1uM": 20.9}
{"compound": "COc1cccc(NC(=O)Cn2nc(Cc3cccnc3)c3ccccc3c2=O)c1", "hERG current change (%, negative = inhibition) at 1uM": -8.3}
{"compound": "O=C(O)c1ccc(C(=O)Nc2ccc(F)cc2)cc1", "hERG current change (%, negative = inhibition) at 1uM": 14.7}
{"compound": "Cc1ccccc1Nc1nc(N)nc(CSc2nnnn2C)n1", "hERG current change (%, negative = inhibition) at 1uM": 0.716}
{"compound": "COc1cc2c(cc1OC)C(C)N(C(=O)CCNC(=O)c1ccccc1)CC2", "note": "(centres unmarked)", "hERG current change (%, negative = inhibition) at 1uM": 14}
{"compound": "N#CCC(=O)NC1CCC(CC2CCC(NC(=O)CC#N)CC2)CC1", "note": "(centres unmarked)", "hERG current change (%, negative = inhibition) at 1uM": 10}
{"compound": "CC1=CS/C(=C(/C#N)C(=O)NCc2ccco2)N1c1ccccc1", "hERG current change (%, negative = inhibition) at 1uM": 8.61}
{"compound": "COc1ccc(-c2nnc(SCC(=O)N3CCCCC3)o2)cc1OC", "hERG current change (%, negative = inhibition) at 1uM": -2.17}
{"compound": "CCn1c(SCC(=O)NCc2ccco2)nnc1-c1cccs1", "hERG current change (%, negative = inhibition) at 1uM": 1.19}
{"compound": "Cc1noc(C)c1C(=O)OCC(=O)NC(=O)NC12CC3CC(CC(C3)C1)C2", "hERG current change (%, negative = inhibition) at 1uM": 6.63}
{"compound": "CCCCn1c(O)c(C(CC)=NCc2ccc3c(c2)OCO3)c(=O)[nH]c1=O", "hERG current change (%, negative = inhibition) at 1uM": -14.7}
{"compound": "Nc1nc(SCC(=O)N2CCCCC2)[nH]c(=O)c1NC(=O)c1ccccc1F", "hERG current change (%, negative = inhibition) at 1uM": 11.1}
{"compound": "O=c1c2[nH]cnc2n(-c2cccc(Br)c2)c(=O)n1Cc1ccccc1", "hERG current change (%, negative = inhibition) at 1uM": 15.9}
{"compound": "COC(=O)c1ccccc1NC(=O)C1(S(=O)(=O)c2ccc(Cl)cc2)CC1", "hERG current change (%, negative = inhibition) at 1uM": 7.49}
{"compound": "COc1ccc(S(=O)(=O)N(C(=O)c2ccco2)c2cc3sc(=O)oc3c3ccccc23)cc1", "hERG current change (%, negative = inhibition) at 1uM": 2.24}
{"compound": "O=c1cc(CSc2nnnn2-c2ccccc2)nc(Nc2ccc(F)cc2)[nH]1", "hERG current change (%, negative = inhibition) at 1uM": -4.12}
{"compound": "NC(=O)Cn1cc(/C=N/NC(=O)c2ccc(Cn3cc(Cl)cn3)o2)c(-c2ccccc2)n1", "hERG current change (%, negative = inhibition) at 1uM": 8.64}
{"compound": "Cc1ccc(OCCC(=O)OCC(=O)c2c(N)n(CC(C)C)c(=O)n(C)c2=O)cc1", "hERG current change (%, negative = inhibition) at 1uM": -42.3}
{"compound": "CCOC(=O)c1c(NC(=O)COC(=O)CCS(=O)(=O)c2ccc(C)cc2)sc(C)c1C", "hERG current change (%, negative = inhibition) at 1uM": 9.46}
{"compound": "COCCNC(=O)C(=O)N/N=C/c1cccs1", "hERG current change (%, negative = inhibition) at 1uM": 13.8}
{"compound": "Oc1ccc(Cc2ncc(C(F)(F)F)cc2Cl)cc1", "hERG current change (%, negative = inhibition) at 1uM": 8.51}
{"compound": "Cc1c(NC(=O)CN2CC(C)OC(C)C2)c(=O)n(-c2ccccc2)n1C.O=C(O)C(=O)O", "note": "(centres unmarked)", "hERG current change (%, negative = inhibition) at 1uM": 7.03}
{"compound": "Cc1cc(Br)ccc1NC(=O)CN(C)C(=O)CSC(=S)N1CCCC1", "hERG current change (%, negative = inhibition) at 1uM": 1.23}
{"compound": "COc1cc(NC(=S)NC(=O)c2ccccc2F)ccc1NC(=O)c1ccco1", "hERG current change (%, negative = inhibition) at 1uM": 7.37}
